Assays:
Format in all cases: cell-based
macrophage = test system: macrophage
Description: In an effort to determine which structural features contributed to the non-toxic nature of the preferred compounds comparative tests were run with reduced RsDPLA and reduced E. coli DPLA in the extremely sensitive assay of pruning of macrophage by LPS/lipid A for PMA-stimulated superoxide anion release. […] The important features must be (a) the presence of five fatty acids in the RsDPLA vs. six fatty acids in E. coli DPLA and (b) the presence of a OH at C10 at the 3-position of RsDPLA vs. the OH at C14 in the E. coli DPLA.

[1] = test system: RAW 264.7 murine macrophage cells; experiment: Cachectin/TNF production by RAW 264.7 cells, immunoblot
Protocol: For the […] to activate the RAW 264.7 murine macrophage cell line, we chose the toxic deep rough chemotype LPS (ReLPS) from Escherichia coli D31m4, which was recently purified and characterized^15. […] This is a clear example of a lipid A derivative showing strong antagonism against a toxic agonist in the induction of cachectin.
The immunoblot method was used to quantitate the cachectin/TNF production by RAW 264.7 murine macrophage cells. RAW 264.7 cells^4,16 were seeded in 24-well plates (Nunc) at a density of 3×10^5 cells/well in Dulbecco's modified Eagle's medium supplemented with 5 percent fetal calf serum. After 12 hours, cell monolayers were washed twice with 1 ml of serum-free medium and then left covered with […] of the same. An aqueous suspension of DPLA and/or ReLPS was then added to a final concentration indicated. Cells were incubated for 12 hours, after which the medium was removed for measurement of TNF by immunoblotting. One hundred μl of medium was mixed with 100 μl of SDS-containing sample buffer, heated to 100° C. for 5 minutes, and subjected to electrophoresis in a 10-15% polyacrylamide gradient gel. […]
Bands were visualized using nitroblue tetrazolium. Approximately 0.1 ng of cachectin/TNF may be detected as a band. […]

70Z/3 cells = experiment: Activation of 70Z/3 cells
Protocol: ^1 Corrected for background of 5% fluorescence.
^2 The DPLA stimulated 7OZ/3 preB cells to the extent of from 2.5-6.0
fluorescence at concentrations of 1.0-10 mg/ml. In the competitive
inhibition experiment, the cells were first exposed to DPLA for 2 hours
before adding the ReLPS. In all experiments, the ReLPS and DPLA were
complexed with bovine serum albumin.
In this experiment, 0.1 μg/ml of ReLPS and 3.0 μg/ml of DPLA were
^1 The time of pre/post treatment of 7OZ/3 cells with DPLA relative t
the time of addition of ReLPS are indicated.

With CCCCCCC=CCCCCCC(=O)OC(CCCCCCCCCCC)CC(=O)NC1C(OCC2OC(OP(=O)(O)O)C(NC(=O)CC(=O)CCCCCCCCCCC)C(OC(=O)CC(O)CCCCCCC)C2O)OC(CO)C(OP(=O)(O)O)C1OC(=O)CC(O)CCCCCCC (stereo not shown) [DPLA] the “activity in priming of macrophage for PMA-stimulated superoxide anion release” value (macrophage) was “inactive or non-toxic”, the “induction of cachectin/TNF (immunoblot)” value [1] was “lack of induction” and the “activation of 70Z/3 cells” value (70Z/3 cells) was “inactive in the activations of 70Z/3 cells by toxic LPS”. The “stimulation of 70Z/3 preB cells by DPLA” value (70Z/3 cells) was 2.5-6.0.
